This is one part of the list.
Legend:
Test in all cases: glycan array binding signal (z-score within array); higher = stronger binding
Conditions in all cases: glycan notation: IUPAC condensed, linker removed
[1] = target: Neu5Ac(a2-6)Gal(b1-4)GlcNAc(b1-2)Man(a1-3)[Man(a1-6)]Man(b1-4)GlcNAc(b1-4)GlcNAc
Procedure, shortened: (§1)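 From the Consortium for Functional Glycomics database, 3228 arrays were curated, keeping only those whose protein sequence was available. Binding is given as a within-array Z-score averaged across arrays sharing a protein sequence and across linkers. Negative Z-scores can be read as non-binding.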

[2] = target: Neu5Ac(a2-6)Gal(b1-4)GlcNAc(b1-2)Man(a1-3)[Neu5Ac(a2-3)Gal(b1-4)GlcNAc(b1-2)Man(a1-6)]Man(b1-4)GlcNAc(b1-4)GlcNAc
Procedure, shortened: as §1

[3] = target: Neu5Ac(a2-6)Gal(b1-4)GlcNAc(b1-2)Man(a1-3)[Neu5Ac(a2-6)Gal(b1-4)GlcNAc(b1-2)Man(a1-6)]Man(b1-4)GlcNAc(b1-4)GlcNAc
Procedure, shortened: as §1

[4] = target: Neu5Ac(a2-6)Gal(b1-4)GlcNAc(b1-2)Man(a1-3)[Neu5Ac(a2-6)Gal(b1-4)GlcNAc(b1-2)Man(a1-6)]Man(b1-4)GlcNAc(b1-4)[Fuc(a1-6)]GlcNAc
Procedure, shortened: as §1

[5] = target: Neu5Ac(a2-6)Gal(b1-4)GlcNAc(b1-2)Man(a1-6)Man(b1-4)GlcNAc(b1-4)GlcNAc
Procedure, shortened: as §1

[6] = target: Neu5Ac(a2-6)Gal(b1-4)GlcNAc(b1-2)Man(a1-6)[Gal(b1-4)GlcNAc(b1-2)Man(a1-3)]Man(b1-4)GlcNAc(b1-4)GlcNAc
Procedure, shortened: as §1

[7] = target: Neu5Ac(a2-6)Gal(b1-4)GlcNAc(b1-2)Man(a1-6)[GlcNAc(b1-2)Man(a1-3)]Man(b1-4)GlcNAc(b1-4)GlcNAc
Procedure, shortened: as §1

[8] = target: Neu5Ac(a2-6)Gal(b1-4)GlcNAc(b1-2)Man(a1-6)[Man(a1-3)]Man(b1-4)GlcNAc(b1-4)GlcNAc
Procedure, shortened: as §1

[9] = target: Neu5Ac(a2-6)Gal(b1-4)GlcNAc(b1-2)[Neu5Ac(a2-6)Gal(b1-4)GlcNAc(b1-4)]Man(a1-3)[GlcNAc(b1-4)][Neu5Ac(a2-6)Gal(b1-4)GlcNAc(b1-2)[Neu5Ac(a2-6)Gal(b1-4)GlcNAc(b1-6)]Man(a1-6)]Man(b1-4)GlcNAc(b1-4)GlcNAc
Procedure, shortened: as §1

[10] = target: Neu5Ac(a2-6)Gal(b1-4)GlcNAc(b1-2)[Neu5Ac(a2-6)Gal(b1-4)GlcNAc(b1-4)]Man(a1-3)[GlcNAc(b1-4)][Neu5Ac(a2-6)Gal(b1-4)GlcNAc(b1-4)Man(a1-6)]Man(b1-4)GlcNAc(b1-4)GlcNAc
Procedure, shortened: as §1

[11] = target: Neu5Ac(a2-6)Gal(b1-4)GlcNAc(b1-2)[Neu5Ac(a2-6)Gal(b1-4)GlcNAc(b1-6)]Man(a1-6)[Neu5Ac(a2-6)Gal(b1-4)GlcNAc(b1-2)Man(a1-3)][GlcNAc(b1-4)]Man(b1-4)GlcNAc(b1-4)GlcNAc
Procedure, shortened: as §1

[12] = target: Neu5Ac(a2-6)Gal(b1-4)GlcNAc(b1-3)Gal(b1-3)GlcNAc
Procedure, shortened: as §1

[13] = target: Neu5Ac(a2-6)Gal(b1-4)GlcNAc(b1-3)Gal(b1-4)GlcNAc
Procedure, shortened: as §1

[14] = target: Neu5Ac(a2-6)Gal(b1-4)GlcNAc(b1-3)Gal(b1-4)GlcNAc(b1-2)Man(a1-3)[Neu5Ac(a2-6)Gal(b1-4)GlcNAc(b1-3)Gal(b1-4)GlcNAc(b1-2)Man(a1-6)]GalNAc
Procedure, shortened: as §1

[15] = target: Neu5Ac(a2-6)Gal(b1-4)GlcNAc(b1-3)Gal(b1-4)GlcNAc(b1-3)Gal(b1-4)GlcNAc
Procedure, shortened: as §1

[16] = target: Neu5Ac(a2-6)Gal(b1-4)GlcNAc(b1-3)Gal(b1-4)GlcNAc(b1-3)Gal(b1-4)GlcNAc(b1-2)Man(a1-3)[Neu5Ac(a2-6)Gal(b1-4)GlcNAc(b1-3)Gal(b1-4)GlcNAc(b1-3)Gal(b1-4)GlcNAc(b1-2)Man(a1-6)]GalNAc
Procedure, shortened: as §1

[17] = target: Neu5Ac(a2-6)Gal(b1-4)GlcNAc(b1-3)Gal(b1-4)GlcNAc(b1-3)GalNAc
Procedure, shortened: as §1

[18] = target: Neu5Ac(a2-6)Gal(b1-4)GlcNAc(b1-3)Gal(b1-4)GlcNAc(b1-3)[Neu5Ac(a2-6)Gal(b1-4)GlcNAc(b1-3)Gal(b1-4)GlcNAc(b1-6)]GalNAc
Procedure, shortened: as §1

[19] = target: Neu5Ac(a2-6)Gal(b1-4)GlcNAc(b1-3)Gal(b1-4)GlcNAc(b1-6)[Gal(b1-3)]GalNAc
Procedure, shortened: as §1

[20] = target: Neu5Ac(a2-6)Gal(b1-4)GlcNAc(b1-3)Gal(b1-4)[Fuc(a1-3)]GlcNAc(b1-3)Gal(b1-4)[Fuc(a1-3)]GlcNAc
Procedure, shortened: as §1

[21] = target: Neu5Ac(a2-6)Gal(b1-4)GlcNAc(b1-3)GalNAc
Procedure, shortened: as §1

[22] = target: Neu5Ac(a2-6)Gal(b1-4)GlcNAc(b1-3)[Neu5Ac(a2-6)Gal(b1-4)GlcNAc(b1-6)]GalNAc
Procedure, shortened: as §1

[23] = target: Neu5Ac(a2-6)Gal(b1-4)GlcNAc(b1-6)GalNAc
Procedure, shortened: as §1

[24] = target: Neu5Ac(a2-6)Gal(b1-4)GlcNAc(b1-6)[Gal(b1-3)GlcNAc(b1-3)]Gal(b1-4)Glc
Procedure, shortened: as §1

[25] = target: Neu5Ac(a2-6)Gal(b1-4)GlcNAc(b1-6)[Gal(b1-3)]GalNAc
Procedure, shortened: as §1

[26] = target: Neu5Ac(a2-6)Gal(b1-4)GlcNAc6S
Procedure, shortened: as §1

Neu5Ac(a2-6)GalNAc = target: Neu5Ac(a2-6)GalNAc
Procedure, shortened: as §1

[27] = target: Neu5Ac(a2-6)GalNAc(b1-4)GlcNAc
Procedure, shortened: as §1

[28] = target: Neu5Ac(a2-6)GalNAc(b1-4)GlcNAc6S
Procedure, shortened: as §1

[29] = target: Neu5Ac(a2-6)GlcNAc(b1-4)GlcNAc
Procedure, shortened: as §1

[30] = target: Neu5Ac(a2-6)GlcNAc(b1-4)GlcNAc(b1-4)GlcNAc
Procedure, shortened: as §1

B1: PX9937J-pdi-523-26-523 (Parabacteroides distasonis) (protein)
chain: EPVSSISDANYWKSPDLFKAFNIGLHGLLRSQSSYNIFVLGEPRSDIYGDQPFGGEATQGVERFSYNTINAEFTGISNFANFYTTLNQINLMIRRTNETDLLGEAEKNYYLGQAYGLRAYIYFHLLRSWGDVIITTEPTLGSELDISHLDKAASPASEVMDLIKKDIDASEKAFGGDYSYKQGKCYWSKPATLMLKGEVYLWSGRQMGGGTGDYTVAKTALQDLQQNGNLKLQEKFTDVFSFNNKENSEMIFALHSGKEDDFMMWRDYNWRNNMVPQREYMAGYCDETGTPFLEIPGYNLQGLMRYQVKKDHYLKSFREGDTRLKGTLKAVYKKHEDGTLEYIAPIQYKFQGTTLEGSNERSWYDDYPIYRYADALLLLAEAKALLGEDPSTEINAVRERAYGSEYFNAHKNEVAYPNDKGSFYNDNPFEAGDENVMEAILKERLREFFFEGKRWYDLRRFGKDYVLKYTTAQESRLLWPINEGALTNNPALKQTPGY
- glycan array binding signal (z-score) [1]: 0.135
- glycan array binding signal (z-score) [2]: -0.327
- glycan array binding signal (z-score) [3]: 0.008
- glycan array binding signal (z-score) [4]: -0.395
- glycan array binding signal (z-score) [5]: -0.455
- glycan array binding signal (z-score) [6]: -0.668
- glycan array binding signal (z-score) [7]: -0.558
- glycan array binding signal (z-score) [8]: -0.363
- glycan array binding signal (z-score) [9]: -0.429
- glycan array binding signal (z-score) [10]: -0.426
- glycan array binding signal (z-score) [11]: 0.316
- glycan array binding signal (z-score) [12]: -0.303
- glycan array binding signal (z-score) [13]: 0.004
- glycan array binding signal (z-score) [14]: 0.114
- glycan array binding signal (z-score) [15]: -0.361
- glycan array binding signal (z-score) [16]: 1.07
- glycan array binding signal (z-score) [17]: -0.443
- glycan array binding signal (z-score) [18]: -0.472
- glycan array binding signal (z-score) [19]: -0.753
- glycan array binding signal (z-score) [20]: 0.331
- glycan array binding signal (z-score) [21]: -0.339
- glycan array binding signal (z-score) [22]: -0.711
- glycan array binding signal (z-score) [23]: -0.246
- glycan array binding signal (z-score) [24]: 0.146
- glycan array binding signal (z-score) [25]: 0.505
- glycan array binding signal (z-score) [26]: -0.33
- glycan array binding signal (z-score) (Neu5Ac(a2-6)GalNAc): -0.189
- glycan array binding signal (z-score) [27]: -0.419
- glycan array binding signal (z-score) [28]: -0.03
- glycan array binding signal (z-score) [29]: -0.58
- glycan array binding signal (z-score) [30]: -0.178
